Measured values as given in PMC6136799, “The Npa1p complex chaperones the assembly of the earliest eukaryotic large ribosomal subunit precursor” (PLoS Genetics, 2018).
These are yes or no findings as the source states them, for the method shown. Tags and fused reporters may be left off the sequences shown.

T1: GST-Npa1p (S. cerevisiae), P34241
T1 chain: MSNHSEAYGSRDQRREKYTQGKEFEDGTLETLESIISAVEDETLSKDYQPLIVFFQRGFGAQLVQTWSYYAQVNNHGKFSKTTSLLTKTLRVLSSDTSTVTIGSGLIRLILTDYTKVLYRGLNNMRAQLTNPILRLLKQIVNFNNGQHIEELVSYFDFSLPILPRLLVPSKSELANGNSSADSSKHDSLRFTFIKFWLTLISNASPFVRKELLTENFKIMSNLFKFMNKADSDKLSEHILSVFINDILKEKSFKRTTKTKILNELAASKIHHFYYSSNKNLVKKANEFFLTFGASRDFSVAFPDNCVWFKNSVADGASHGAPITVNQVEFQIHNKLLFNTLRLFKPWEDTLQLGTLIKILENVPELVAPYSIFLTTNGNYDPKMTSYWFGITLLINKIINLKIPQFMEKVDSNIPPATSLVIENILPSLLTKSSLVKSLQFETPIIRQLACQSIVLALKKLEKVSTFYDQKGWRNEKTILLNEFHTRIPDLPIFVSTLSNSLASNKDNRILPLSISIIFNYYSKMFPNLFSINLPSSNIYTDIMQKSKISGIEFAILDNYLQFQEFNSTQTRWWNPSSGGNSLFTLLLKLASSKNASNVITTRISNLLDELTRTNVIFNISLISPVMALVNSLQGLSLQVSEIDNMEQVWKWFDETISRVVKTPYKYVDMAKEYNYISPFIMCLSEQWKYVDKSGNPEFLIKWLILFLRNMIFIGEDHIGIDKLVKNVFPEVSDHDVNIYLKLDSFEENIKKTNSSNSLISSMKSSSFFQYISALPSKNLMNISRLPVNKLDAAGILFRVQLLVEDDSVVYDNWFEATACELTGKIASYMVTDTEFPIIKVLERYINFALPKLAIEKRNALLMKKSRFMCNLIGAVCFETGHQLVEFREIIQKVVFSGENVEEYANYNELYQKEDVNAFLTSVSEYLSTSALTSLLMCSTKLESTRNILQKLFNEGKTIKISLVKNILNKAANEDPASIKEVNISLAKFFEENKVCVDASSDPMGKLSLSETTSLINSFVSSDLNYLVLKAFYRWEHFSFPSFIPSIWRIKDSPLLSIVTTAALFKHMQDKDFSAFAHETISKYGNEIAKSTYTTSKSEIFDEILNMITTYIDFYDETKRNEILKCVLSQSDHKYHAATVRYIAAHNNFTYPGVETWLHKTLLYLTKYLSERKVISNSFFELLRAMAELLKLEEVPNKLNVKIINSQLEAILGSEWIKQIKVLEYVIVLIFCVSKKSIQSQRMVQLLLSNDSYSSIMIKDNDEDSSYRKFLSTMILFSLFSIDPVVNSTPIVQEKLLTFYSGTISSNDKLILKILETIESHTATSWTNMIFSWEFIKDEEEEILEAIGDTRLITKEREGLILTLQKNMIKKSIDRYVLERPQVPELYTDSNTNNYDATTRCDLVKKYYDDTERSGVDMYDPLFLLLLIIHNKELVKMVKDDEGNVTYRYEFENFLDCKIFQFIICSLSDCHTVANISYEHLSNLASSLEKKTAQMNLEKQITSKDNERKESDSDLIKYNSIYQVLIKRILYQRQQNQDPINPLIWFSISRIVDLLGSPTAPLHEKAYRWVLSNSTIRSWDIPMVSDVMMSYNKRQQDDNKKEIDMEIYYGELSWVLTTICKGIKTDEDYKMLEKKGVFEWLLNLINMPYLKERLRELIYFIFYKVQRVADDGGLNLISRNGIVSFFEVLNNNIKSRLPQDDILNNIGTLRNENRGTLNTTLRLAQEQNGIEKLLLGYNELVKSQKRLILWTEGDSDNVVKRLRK

T2: GST-Npa2p (S. cerevisiae, UniProt P47108 1-1174)
T2 construct: Npa2p, S. cerevisiae; NPA2 ORF inserted into XhoI-digested pGEX-6P1 (plasmid pRC58); source: E. coli Rosetta λDE3, purified (Glutathione Sepharose 4 FF)
T2 sequence (looked up): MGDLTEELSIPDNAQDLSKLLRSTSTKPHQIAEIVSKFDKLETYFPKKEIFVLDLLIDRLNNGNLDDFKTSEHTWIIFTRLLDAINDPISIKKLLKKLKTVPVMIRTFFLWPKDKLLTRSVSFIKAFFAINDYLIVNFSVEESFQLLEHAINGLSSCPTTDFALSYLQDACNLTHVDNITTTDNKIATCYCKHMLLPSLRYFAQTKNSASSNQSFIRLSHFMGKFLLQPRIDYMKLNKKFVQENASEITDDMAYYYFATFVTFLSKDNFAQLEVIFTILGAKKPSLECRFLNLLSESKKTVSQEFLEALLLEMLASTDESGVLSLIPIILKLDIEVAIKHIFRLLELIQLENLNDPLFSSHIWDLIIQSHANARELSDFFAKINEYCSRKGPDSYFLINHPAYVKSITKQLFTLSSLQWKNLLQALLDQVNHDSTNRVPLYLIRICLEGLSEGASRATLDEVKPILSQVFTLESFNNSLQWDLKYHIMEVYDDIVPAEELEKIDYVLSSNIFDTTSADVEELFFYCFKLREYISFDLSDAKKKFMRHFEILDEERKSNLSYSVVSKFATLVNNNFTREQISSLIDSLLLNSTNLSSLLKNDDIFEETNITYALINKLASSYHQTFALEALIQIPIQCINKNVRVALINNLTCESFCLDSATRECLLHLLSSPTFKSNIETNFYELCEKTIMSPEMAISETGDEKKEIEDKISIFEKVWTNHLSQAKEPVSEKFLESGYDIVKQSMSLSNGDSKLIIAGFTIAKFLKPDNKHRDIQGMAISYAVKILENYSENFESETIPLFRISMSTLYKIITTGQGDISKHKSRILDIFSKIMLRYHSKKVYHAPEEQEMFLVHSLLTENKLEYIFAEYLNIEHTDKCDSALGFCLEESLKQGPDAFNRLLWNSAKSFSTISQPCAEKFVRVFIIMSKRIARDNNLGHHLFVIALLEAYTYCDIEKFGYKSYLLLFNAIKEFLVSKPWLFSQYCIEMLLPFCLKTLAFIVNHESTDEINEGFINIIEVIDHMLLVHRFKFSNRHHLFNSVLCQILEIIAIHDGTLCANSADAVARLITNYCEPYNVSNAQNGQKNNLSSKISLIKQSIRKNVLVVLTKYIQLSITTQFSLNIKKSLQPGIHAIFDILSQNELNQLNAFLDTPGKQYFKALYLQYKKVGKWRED

T3: GST-Nop8p (S. cerevisiae) (UniProt Q08287)
T3 sequence: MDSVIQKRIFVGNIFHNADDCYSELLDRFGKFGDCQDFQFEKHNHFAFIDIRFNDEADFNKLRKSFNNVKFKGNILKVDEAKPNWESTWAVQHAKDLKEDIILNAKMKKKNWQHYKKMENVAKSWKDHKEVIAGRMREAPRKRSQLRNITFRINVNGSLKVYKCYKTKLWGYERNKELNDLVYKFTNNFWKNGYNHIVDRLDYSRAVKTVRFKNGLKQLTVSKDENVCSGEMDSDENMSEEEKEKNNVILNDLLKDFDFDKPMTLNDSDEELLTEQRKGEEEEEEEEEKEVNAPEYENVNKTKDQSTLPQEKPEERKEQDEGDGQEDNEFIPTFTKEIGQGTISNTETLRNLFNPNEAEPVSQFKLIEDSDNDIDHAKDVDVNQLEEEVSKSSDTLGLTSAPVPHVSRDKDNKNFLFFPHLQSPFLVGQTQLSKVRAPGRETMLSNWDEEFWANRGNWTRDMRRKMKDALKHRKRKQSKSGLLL

B1: GST-Npa2p, P47108 1-1174 (protein)
chain: T2 sequence (looked up)
B2: GST-Rsa3p (protein, UniProt Q05942 1-220)
chain: MSAGDISAINIKSVKKNRRRKKRRTADVSSSDSSSSDPSSESEKEEIQNGAIEEHVGENGKSDHVFSKGNDEDKQEDIAIEVSDVELTDEESKDLKLNSKEVIDDLTKISLSKIPEPTKSQNKEGFMNASKIAENIKLAREEYNELAENFVPKGKDKTKLREEYLNLLFENYGDDINRLRAAPDFTNKSLSILADALQEGIGMFDIGELELVLKNKEMEN

Columns and labels:
Assay in all cases: co-IP; purified GST-tagged versions of the complex proteins tested in pairs by immunoprecipitation with specific antibodies; conditions not given; both purified
[1] = target: T1, GST-Npa1p (S. cerevisiae), P34241; settings: remark: other sources report otherwise
GST-Npa2p = target: T2, GST-Npa2p
[2] = target: T3, GST-Nop8p (S. cerevisiae)

Binder | binding [1] | binding (GST-Npa2p) | binding [2]
B1 | no binding |  | 
B2 |  | no binding | no binding
